The campaign covered roughly 46,000 compounds. About 60 (0.1%) were called active. Another 3% or so got no clear call; they are omitted. Calls come from the whole dose curve; as a rule, active = well fitted inhibition curve with a large enough effect; inconclusive = small, poorly fitted or top-dose-only effect; inactive = no such curve, though single readings can be large or run the other way. Some of the results follow.
experiment: Primary qHTS assay for Inhibitors of ovarian cancer metastasis using an organotypic tumor microenvironment (TME) model.; note: nearly all actives have a fitted effect of over 65% in size;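 for activity change, negative = inhibition: plate controls were DMSO wells for no effect and tomatine positive control wells for full effect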; settings: SKOV3ip1-GFP adhesion/invasion on 3D omental model, fluorescence; series mostly up to 45.8 µM; activity change, negative = inhibition: at the top concentration
How it was run: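 Adhesion/invasion was scored as fixed GFP-labeled SKOV3ip1 cell counts (488/509 nm), normalized to DMSO and tomatine controls. Cancer cells in serum-free medium, with four compound doses (0.36-46 umol/L), sat 2 hr at RT then 16 hr at 37 C on a 48 hr fibroblast/mesothelial/ECM culture.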

Activity change, negative = inhibition, inactive:
CCN(CCCNC(=O)CN1N=C(c2ccc(OC)cc2)CCC1=O)c1cccc(C)c1 21.8%, COc1ccc(NC(=O)CSc2nnc(NC(=O)Nc3ccc(OC)cc3)s2)cc1 -21.5%, CCC(C(=O)Nc1c(C)cc(C)cc1C)n1c(=O)c(-c2ccccc2NC(C)=O)nc2ccccc21 (stereo not given) 2.45%, Cc1ccc(-c2noc(CNC(=O)c3ccc(Br)o3)n2)cc1 -24.7%, COc1ccc(-c2ccc(NS(=O)(=O)c3ccc(C(C)=O)cc3)cc2)nn1 3.84%, Cc1cccc(N2CCN(C(=O)c3cn(CC(C)C)c(=O)c4c3c3ccccc3n4C)CC2)c1C 3.67%, COc1cc2nccc(Oc3ccc(NC(=O)NC4CC4)c(Cl)c3)c2cc1C(N)=O -1.22%, Cc1cccc(N2CCN(C(=O)c3cccc(-n4c(C)nc5cccnc54)c3)CC2)c1C 8.35%, CCCCCCOc1ccc(C2C(=O)N(C3CCCCC3)CC(=O)N2CCC)cc1 (stereo not given) -30%, CCOc1ccccc1CNC(=O)C1CCN(c2nn3cc(-c4ccc(F)cc4)nc3s2)CC1 6.6%, Cc1cccc(N2CCN(C(=O)Nc3cn(CC(C)C)c(=O)c4ccccc34)CC2)c1C 56.3%, COc1ccccc1Cc1nc2ccccc2nc1SCC(=O)N(C)c1ccc(F)cc1 0.908%, CCOc1ccccc1N(CC(=O)NCCSc1ccccc1)S(=O)(=O)c1ccccc1 -9.95%, N#C/C(=C\c1ccc(Cl)cc1Cl)c1nc(-c2cccc(Cl)c2)cs1 6.39%, Cc1ccc(C(=O)Nc2cc3nn(-c4ccccc4)nc3cc2Cl)c(C)c1 -9.89%, CC(C)c1ccc(CN(Cc2ccco2)c2cnc(S(C)(=O)=O)nc2C(=O)Nc2ccc(F)cc2)cc1 6.52%, CCCCN(C)C(=O)C1CCCN(c2ncnc3onc(C)c23)C1 (stereo not given) 0.658%, CCc1nn(CC(=O)NCCCN(CC(C)C)CC(C)C)c(=O)c2cc3sc(C)cc3n12 -5.71%, O=C(c1ccc2c(=O)n(CCc3ccccc3)c(=O)[nH]c2c1)N1CCN(c2ccc(F)cc2)CC1 5.85%, COc1ccc(N2CCN(C(=O)C3CCN(S(=O)(=O)c4cccs4)CC3)CC2)cc1 2.82%, O=C(CC1N=C2c3ccccc3N=C(SCc3ccc(Cl)cc3)N2C1=O)NCc1cccs1 (stereo not given) 10.2%, CC(=O)O[C@]1(C(C)=O)CC[C@H]2[C@@H]3C=C(C)C4=CC(=O)CC[C@]4(C)[C@@H]3CC[C@@]21C 1.24%, Cc1ccc(CN2CCSc3ccc(C(=O)N4CCN(c5ccccc5)CC4)cc32)cc1 -9.79%, Cc1ccc2c(c1)c1c(c(=O)n(-c3cccc(Cl)c3)c(=O)n1CC(=O)Nc1c(C)cccc1C)n2C -5.32%, Cc1ccc(O)c(C(CCN(C(C)C)C(C)C)c2ccccc2)c1 (stereo not given) -13.1%, O=c1c2cc3c(cc2n(Cc2ccc(Cl)cc2)c(=O)n1Cc1nc(-c2ccccc2)no1)OCO3 0.323%, Cc1nc(-n2nc(C)c(Cc3ccccc3Cl)c2C)sc1C(=O)Nc1ccccc1F -3.09%, Cc1ccc(C)c(CN2CCCN(Cc3ccc(F)cc3)S2(=O)=O)c1 0.891%, COc1ccc(CNC(=O)Cc2c(C)c3cc4c(C)coc4c(C)c3oc2=O)cc1 -14.7%, Cc1ccc(-c2noc(C(C)NS(=O)(=O)c3ccc(C)cc3)n2)cc1 (stereo not given) 1.76%, CN1C(=O)Cc2cc(S(=O)(=O)N3CCN(c4ccccc4F)CC3)ccc21 3.63%, O=C(Nc1cccc(Cl)c1)c1cnc2sc(N3CCCC3)nn2c1=O -6.78%, COc1ccccc1NC(=O)C(=O)NCC(c1ccc2c(c1)OCO2)N1CCOCC1 (stereo not given) -4.83%, COc1ccccc1/C=C/c1nc2ccccc2n1C(C)C 3.15%, Cc1ccc2nc3c(cc(C(=O)NCC4CCCO4)c(=N)n3C(C)C)c(=O)n2c1 (stereo not given) 12.6%, CC(C)c1ccc(C2=CC(c3ccc(C(C)C)cc3)n3nnnc3N2)cc1 (stereo not given) -3.81%, CC(=O)c1ccc(S(=O)(=O)N2CCn3cccc3C2c2ccc(C)cc2)cc1 (stereo not given) 0.969%, CSc1ccc(CCNC(=O)c2cnc3c(C)cccn3c2=O)cc1 -6.29%, CCn1c(C)c(C2N3CC4(C)CN2CC(C)(C3)C4=O)c2ccccc21 (stereo not given) 12.5%, CC(=O)c1cc2c(cc1N/C(=N/S(=O)(=O)c1ccc(Cl)cc1)c1ccc(F)cc1)OCO2 16.7%, Cc1ccc(C)c(CN2C(=O)c3ccccc3S(=O)(=O)c3ccc(C(=O)N(C)C4CCCCC4)cc32)c1 -5.42%, CC(=O)c1cccc(-n2c(=O)c3c4c(sc3n(CC(=O)c3ccccc3)c2=O)CN(C(C)=O)CC4)c1 -15.4%, Cc1nn(-c2ccccc2)c(OC(=O)C(C)C)c1Sc1ccc(Cl)cc1 4.5%, Cc1ccc(CNC(=O)CCCCCn2c(=O)[nH]c3ccccc3c2=O)cc1 -0.167%, Cc1ccc(C)c(N2CCN(C(=O)c3ccc(NC(=O)c4nsc5ccccc45)cc3)CC2)c1 -6.21%, CCc1ccccc1NC(=O)Nc1c[nH]c(=O)[nH]c1=O -2.42%, CC(C)(C)c1ccc(NC(=O)C2CCCN(c3cnccn3)C2)cc1 (stereo not given) -7.79%, CCOc1ccc(N2CC(NC(=O)CCc3ccccc3)CC2=O)cc1 (stereo not given) 0.442%, Cc1cnc(-c2cc(N3CCN(C(=O)CCS(C)(=O)=O)CC3)ncc2Cl)c(C)c1 16.6%, Cc1ccccc1-c1nc(CN2CCC(C(=O)NCc3ccccc3Cl)CC2)c(C)o1 2.61%, COC(=O)C(NC(=O)CC(C)C)(Nc1nc2c(s1)CCCC2)C(F)(F)F (stereo not given) -10.5%, COC(=O)c1ccc(NC(=O)CCS(=O)(=O)c2ccc(Br)cc2)cc1 7.65%, CC(=O)c1cc2c(cc1N/C(=N/S(=O)(=O)c1ccc(C)cc1)c1ccccc1)OCO2 -20.1%, COc1ccc(NC(=O)CSc2nc(-c3cccs3)cc(C(F)(F)F)n2)cc1OC 1.89%, COc1ccc(-c2cc(C(=O)O)n(Cc3ccccc3)n2)cc1 -5.85%, COc1ccc(C(=O)NC2(C(F)(F)F)C(=O)NC(C)=C2C#N)cc1OC (stereo not given) 6.04%, CN1CCc2c(c3ccccc3n2Cc2ccc(C(=O)NO)cc2)C1 -10.4%, CCOc1ccc(CNCc2c(C(=O)O)n(Cc3ccccc3F)c3cc(OC)ccc23)cc1 2.43%, CCCCOc1ccc(C(=O)NCCS(=O)(=O)N2CCN(c3ccc(F)cc3)CC2)cc1 -0.245%, CCc1cnc2c(c1SCC(=O)N1CCCCC1)c(=O)n(C)c(=O)n2C 6.41%, Cc1ccc(C)c(NC(=O)CN2C(=O)CCc3ccccc32)c1 -7.26%, COc1ccc(CN(C(=O)COc2ccccc2OC)C2CCS(=O)(=O)C2)cc1 (stereo not given) 1.11%, Cc1cccc(OC(C)C(=O)Nc2ncn[nH]2)c1 (stereo not given) 2.74%, CCCCN(CC)CCCNC(=O)c1sc2nc(C)cc(C)c2c1-n1cccc1 5.25%, CCOC(=O)C1CCCN(S(=O)(=O)c2ccc(F)c(C(=O)Nc3ccc(F)c(F)c3)c2)C1 (stereo not given) -0.104%, Cc1cccc2nc(-c3ccco3)c(Nc3ccc4c(c3)OCO4)n12 21.2%, CCN(CC)c1cc(C)c2cc(NC(=O)c3cccc(OC)c3)ccc2n1 -6.58%, COc1ccc(CNC(=O)c2cc(-c3ccc(OC)cc3)on2)cc1 -3.43%, Cc1nc(SC(C)C(=O)Nc2ccccc2C)cc(-c2ccccc2)n1 (stereo not given) 3.88%, Cc1ccc(-n2nnnc2CNC(=O)C(C)(C)C)cc1C -7.86%

outcome, inactive:
CCOC(=O)C1CCCN(C(=O)c2cc3c(=O)[nH]c4ccc(C)cc4c3s2)C1 (stereo not given), CN(Cc1ccccc1)S(=O)(=O)c1cc(Br)cc2c1N(C(=O)C1CC1)CC2, COc1cccc(N2CC(NC(=O)CCCc3ccccc3)CC2=O)c1 (stereo not given), Cc1ccc(NS(=O)(=O)c2c(C)[nH]c(=O)[nH]c2=O)c(C)c1, Cc1ccccc1-c1nc2cc(NC(=O)Cc3ccc(Cl)cc3)ccc2o1, COc1ccccc1N1CCN(C(=O)Cn2cnc3onc(-c4ccc(F)cc4)c3c2=O)CC1, COc1cccc(N2CC(NC(=O)c3ccco3)CC2=O)c1 (stereo not given), CCOc1ccc(C(=O)Nc2cccc(-c3nc4cc(Cl)cc(Cl)c4o3)c2)cc1, Cc1nn(-c2ccccc2)c2c1N(CC(=O)N1CCN(c3cccc(Cl)c3)CC1)C(=O)CS2, COc1ccc(Cn2c(=O)c3oc4ccccc4c3n(Cc3cccc(C(F)(F)F)c3)c2=O)cc1, CCOC(=O)c1ccccc1NC(=O)CSc1nc2cn(CC)nc2c(=O)n1Cc1ccc(Cl)cc1, Cc1ccc(-n2c(Cc3ccccc3)nnc2SCc2nc(-c3cccs3)no2)cc1, COc1ccc(Cl)cc1NC(=O)Cc1ccc(NC(=O)N2CCCCc3ccccc32)cc1, CCOC(=O)Cn1c(=O)n(CC2CCCO2)c2nc(-c3ccc(C)cc3)nc(C(N)=O)c21 (stereo not given), CCc1nnc(NC(=O)CSc2nccn2-c2ccc(OC)cc2)s1, Cc1nc(C)c(-c2ccc(SCC(=O)Nc3ccc(Br)cc3)nn2)s1, CC1CCCN(CCCNC(=O)c2ccc3c(c2)N(Cc2ccccc2F)C(=O)c2ccccc2S3(=O)=O)C1 (stereo not given), Cc1ccc(/C=C/c2onc(C)c2S(=O)(=O)N2CCC(C(=O)Nc3ccc(C)c(N(C)C)c3)CC2)cc1, COc1cc(C(=O)Oc2c(Sc3ccccc3)c(C)nn2-c2ccccc2)cc(OC)c1OC, CCOC(=O)c1c(NC(=O)/C=C/c2ccc(OCC)cc2)sc(C)c1C, Cc1cc(C)c(NC(=O)Cn2c(=O)n(CC(=O)NCc3ccccc3Cl)c(=O)c3sccc32)c(C)c1, O=C(CSc1nc2ccccc2nc1Cc1ccccc1)NCc1ccccc1Cl, CCC(=O)N1CCc2cc(Br)cc(S(=O)(=O)N3CCC(C(=O)Nc4ccc(OC)cc4)CC3)c21, CCc1ccc(NC(=O)c2ccc3c(O)c(S(=O)(=O)c4ccc(Cl)cc4)c(=O)[nH]c3c2)cc1, Cc1ccc(-c2nc3c4ccccc4n(CC(=O)N4CCN(c5ccccc5F)CC4)c(=O)n3n2)cc1
